In the RNAGym collection of RNA variant scans (doi:10.1073/pnas.2313332121):
Variants at the floor of the assay are shown more often than the library holds them.

B1: TPR 5TU (parent)
chain: GGAUCUUCUCGAUCUAACAAAAAAGACAAAUCUGCCACAAAGCUUGAGAGCAUCUUCGGAUGCAGAGGCGGCAGCCUUCGGUGGCGCGAUAGCGCCAACGUUCUCAACUAUGACACGCAAAACGCGUGCUCCGUUGAAUGGAGUUUAUCAUG

Variants of: B1
Assay: polymerase ribozyme fitness, log enrichment relative to wild type (log ratio); higher = more active; in vitro selection for triplet polymerase activity
Procedure, shortened: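 The heterodimeric triplet polymerase ribozyme's subunits were each mutagenized into PCR-built libraries and transcribed. Every library was selected once, in triplicate, by annealing with a biotinylated primer, the partner subunit and triplets, incubating frozen at −7 °C, gel-excising extended constructs, capturing on streptavidin beads and running RT-PCR. Input and output libraries were Illumina-sequenced, with genotypes kept only at ≥10 input reads and ≥1 read per output. Fitness, from inverse-variance-weighted replicate averages, is the base-2 logarithm of genotype enrichment over wild-type enrichment.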

Polymerase ribozyme fitness (log ratio), -3.22:
GGAUCUUCUCGAUCUAACAAUAAAGACAAAUCUGCCACAAAGCUUGAGAGCGUCUUCGGAUGCAGAGGCGGCAGCCUUCGGUGGCGUGAUAGCGCCAACGUUCUCAACUAUGAUACGCAAAACGCGUGCUCCGUUGAAUGGAGGUUAUCAUG [A21U A52G C87U C114U U144G]

Polymerase ribozyme fitness (log ratio), -1.96:
GGAUCUUCUCGAUCUAACAAUAAAGACAAAUCUGCCACAAAGCUUGAGAACAUCUUCGGAUGGAGAGGCGGCAGCCUUCGGUGGCGCGGUAGCGUCAACGUUCUCAACUAUGACAUGCAAAACGCGUGCUCCGUUGAAUGGAGUUUAUCAUG [A21U G50A C63G A89G C95U C116U]

Polymerase ribozyme fitness (log ratio), ≤ -4.2:
GGAUCUUCUCGAUCUAACAAUAAAGACAAAUCUGCCACAAAGCUUGAGCGCAUCUUCGGAUGCAGAGGCGGCAGCCUUCUGUGGCGCCAUAGCGCCAACGUGCUCAACUAUGACACGCAAAACACGUGCUCCGUUGAAUGGAGGUUUUCAUG [A21U A49C G80U G88C U102G G124A U144G A147U]
GGAUCUUCUCGAUCUAACAAUAAACACAAAUCUGCCACAAAGCUUGAGAGUAUCUUCGGAUGCAGGGGCGGCAGCCUUCGGUGGCGCGAUAGCGCCAACGUUCUCAACUAUGACACGCAAAACGCGUGCUCCGUUGAAUGGAGUUUAUCAUG [A21U G25C C51U A66G]
GGAUCUUCUCGAUCUAACAAUAAAGACAAAUCUGCCACAAAGCUUGAGAGCAUCUUCGGAUGCAGAGGCGGCCGCCUUCGGUGGCGAGAUAGCGCCAACGUUCUCAACUAUGACACGCAAAACGCGUGCUCCGUUGAAUGGAGUUUAUCAUG [A21U A73C C87A]
GGAUCUUCUCGAUCUAACAAUAAAGACAAAUCUGCCACAAAGCUUGAGAGCAUAAUCGGAUGCAGAGGCGGCAGCCUUCGGUGGCGCGGUAGCGCCAACGUUCUCAACUAUGACACGCAAAACGCGUGCUCCGUUGAAUGCAGUUCAUCAUG [A21U C54A U55A A89G G141C U146C]
GGAUCUUCUCGAUCUAACAAUAAAGACAAAUCUGCCACAAAGCUUGAGAGCAUCUUCGGAUGCAGAGGCGGCAGCCUUCGGUGGCGUGAUAACGCCAACGUUCUCAACUAUGACACGCAAAACGCGUGCUCCGUUGAAUGGAGUUUAUCACG [A21U C87U G92A U151C]
GGAUCUUCUCGAUCUAACAAUAAAGAAAAAUCUGCCACAAAGCGUGAGAGCAUCUUCGGAUGCAGAGGCGGCAGCCUUCGGUGGCGAGAUAGCGCCAACGUUCUCAACUAUGACACGCAAAACGCGUGCUCCGUUGUAUGGAGUUUAUCAUG [A21U C27A U44G C87A A137U]
GGAUCUUCUCGAUCUAACAAUAAAGACAAAUCUGCCACAAAGCUUGAGAGCCUCUUCGGAAGAUGCGGCGGUAGCCUUCGAUGACGCGAUAGCGCCAACGUUCUCAACUAUGACACGCAAAACGCGUGCUCCGUUGAAUGGAGUUUAUCAUG [A21U A52C U61A C63A A64U A66C C72U G81A G84A]
GGAUCUUCUCGAUCUAACAAUAAAGACAAAUCUGCGACAAAGCCUGAGAGCAUGUUCGGAUGCAGAGGCGGCAUCCUUCGGUGGCGCGGUAGCGCCAACGUUCUCAACUAUGACACGCACAACGCGUGCUCCGGUGAAUGGAGUUUAUCAUG [A21U C36G U44C C54G G74U A89G A120C U134G]
GGAUCUUCUCGAUCUAACAAUAAAGACAAAUCUGCCACAAAACUUGAGAGCAUCUUCGGAUGCAGAGGCGGCAGCCUUCGGUGGCGUGAUAUAGCCAACGUUCUUAACUAUGACACGAAAAACGCGAGCUCCGUUGAAUGGAGUUUAUCUUG [A21U G42A C87U G92U C93A C105U C118A U127A A150U]
GGAUCUUCUCGAUCUAACAAUAAAGACAAAUCUGCCACAAAGCUUGAGAGCAUUUUCGGUAGCAGAGGCGGCAGACUUCGGUGGCGCGAUAGCGCGAACGUUCUAAACUAUGACACGCAAAACGUGUGCUCCGUUGAAUGGAGUUUAUCAUG [A21U C54U A60U U61A C75A C96G C105A C125U]
GGAUCUUCUCGAUCUAACAAUAAAGACAAAUCUGCAACAAAGCUUGAGAGCAUCUUCGGAUGCAGAGGCGGCAGCCUUCAGUGGCGCAAUAGCGCCAACUUUCUCAACUAUGACACGCAAAACCCGUGCUCCAUUGAAUGGACUUUAACAUG [A21U C36A G80A G88A G100U G124C G133A G143C U148A]
GGAUCUUCUCGAUCUAACAAUAAAGACAAAUCUGCCACAAAGCUUGAGAGCAUAAUCGGAUGCAGAGGCGACAGUCUUCAGUGGCGGGAUAGCGCCUACGUUCUCAACUAUGACACGCAAAACGCGUGCUCGGUUGAAUGUAGUUUAUCAUG [A21U C54A U55A G71A C75U G80A C87G A97U C132G G141U]
GGAUCUUCUCGAUCUAACAAUAAAGACAAAUCUGCCACAAAGCUUGAGAGCUACAUCGGAUGCAGAGGCGCCAGCCUUUGGUGGCGCGAUAGCGGCAACGUUGUCAACUAUGACACGCAAAACGAGUGCUCCGUUGAAUGGAGUUUAUUAUG [A21U A52U U53A U55A G71C C79U C95G C103G C125A C149U]
GGAUCUUCUCGAUCUAACAAUAAAGACAAAUCUGCCACAAAGCUUGGGAGCAUCAUCGGAUGCAGAGGCGGCAGCCUUCGGUGGCGCGAUAGCGCAAACGUUCUCAACUAUGACACGCAAAACGCGUGCUCCUUUGAAUGGAGUUUAUCAUG [A21U A47G U55A C96A G133U]
GGAUCUUCUCGAUCUAACAAUAAAGACAAAUCUGCCACAGAGCUUGAGAGCAUCUUCGGAGGCAGAGGCGGCAGCCUUCGGUGGCGCGAUGGCUCCAACGUUCUCAACUAUGACACGCAAAACGCGUGCUCCGUUGAAUGGAGUAUAUCAUG [A21U A40G U61G A91G G94U U145A]

Polymerase ribozyme fitness (log ratio), 0.702:
GGAUCUUCUCGAUCUAACAAUAAAGACAAAUCUGCCACAAAGCUUGAGAGCAUCUUAGGAUGCAGAGGCGGCAGCUUUCGGUGGCGCGAUAGCGCCAACGUUCUCAACUAUGACAAGCAAAACGCGUGCUCCGUUGAAUGGAGUUUAUCAUG [A21U C57A C76U C116A]

Polymerase ribozyme fitness (log ratio), -3.57:
GGAUCUUCUCGAUCUAACAAUAAAGACAAAUCUGCCACAAAGCUUGAGACCAUCUUCGGAUGCAGAGGCGGCAGCCUUCGGUGGCGCGAUAGCGCCAACGUUCUCAACUAUGACACGCAAAACGCGUGCUCCGUUGAAUGGAGUUUAUCAUG [A21U G50C]
